Measured values reported in the RNAGym collection of RNA variant scans (doi:10.1093/nar/gkz1192).
The source gives no read counts; variants with many changes may rest on few reads.

B1: CPEB3 Ribozyme (parent)
chain: UAACAGGGGGCCACAGCAGAAGCGUUCACGUCGCAGCCCCUGUCAGAUUCUGGUGAAUCUGCGAAUUCUGCUGUAUAUCUC

Variants of: B1
Test: self-cleavage, relative activity (ratio to wild type); higher = more cleavage; in vitro, sequencing
Method in brief: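 Barcoded CPEB3 ribozyme mutants, produced by rounds of error-prone PCR, self-cleaved while being transcribed with T7 RNA polymerase for 5 hours at 37°C and during a subsequent 15 min DNase I step before EDTA was added. Sequencing of template-switched cDNA on Illumina gave cleaved and total reads, and DNA sequencing assigned barcodes to variants. Each variant's relative activity is its cleaved/total read fraction divided by the unmutated ribozyme's fraction, averaged across three batches. A variant needed a minimum of 5 reads.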
Work on A13U A20G A57G yielded a self-cleavage of 0.46. With A13U A20G A64U G70C the self-cleavage was 0.06. Variant A13U A20G C23U C40U U72A A77G has a self-cleavage of 0.05. A13U A20G C27A A45U U66A U76C showed a self-cleavage of 0.06. A13U A20G C27A U48C gave a self-cleavage of 0.08. Work on A13U A20G C37A U58C U60C yielded a self-cleavage of 0.04. Work on A13U A20G C38U yielded a self-cleavage of 0.27. For A13U A20G C38U A45G U49C A77U, the self-cleavage was 0.08. A13U A20G G22C A35U A64G showed a self-cleavage of 0.44. For A13U A20G G42A, the self-cleavage was 0.08. For A13U A20G G52A U58C, the self-cleavage was 0.73. A13U A20G U25C gave a self-cleavage of 0.21. A13U A20G U25C G61C A75U U80A gave a self-cleavage of 0.25. A13U A20G U25C U31C showed a self-cleavage of 0.33. A13U A20G U26C A57G U80C gave a self-cleavage of 0.36. Work on A13U A20G U26C C29A A64G yielded a self-cleavage of 0.18. Variant A13U A20G U26C C40U U54G U60A has a self-cleavage of 0.09. For A13U A20G U41A U49A A56U U80C, the self-cleavage was 0.05. Work on A13U A20G U41C U43A U51C A77U yielded a self-cleavage of 0.67. A13U A20G U43A U49C G52A C79U showed a self-cleavage of 0.67. Work on A13U A20G U43C C59U U67C yielded a self-cleavage of 0.15. For A13U A20G U60A U72A U78C, the self-cleavage was 0.19. For A13U A20G U60C, the self-cleavage was 0.32. With A13U A20G U76A the self-cleavage was 1.02. In the case of A13U A20U A21G G30U U43C, the self-cleavage is reported as 0.05. A13U A20U A28U gave a self-cleavage of 0.28. For A13U A20U A28U A35G, the self-cleavage was 0.33. A13U A20U A47U U76C U80C gave a self-cleavage of 0.28. A13U A20U A56G U66C U69C showed a self-cleavage of 0.09. A13U A20U C23U showed a self-cleavage of 0.22. Work on A13U A20U C32U U58C U60C U67C yielded a self-cleavage of 0.06. Work on A13U A20U C40G U78C yielded a self-cleavage of 0.18. Work on A13U A20U G42C C44G U72A G73A U80C yielded a self-cleavage of 0.13. Variant A13U A20U U41C U48A U72C U74C has a self-cleavage of 0.15. Work on A13U A20U U41C U69C yielded a self-cleavage of 0.13. Variant A13U A20U U48C has a self-cleavage of 0.17. For A13U A20U U49A G73U U80A, the self-cleavage was 0.54. For A13U A20U U67A U78C, the self-cleavage was 1.06. With A13U A21G A28U U51G U66C U80A the self-cleavage was 0.86. For A13U A21G A35G, the self-cleavage was 0.97. A13U A21G A35G A47U gave a self-cleavage of 0.25. A13U A21G A35U gave a self-cleavage of 0.12. In the case of A13U A21G A35U U48C A57G A64G, the self-cleavage is reported as 0.09. In the case of A13U A21G A45G A64G A65G, the self-cleavage is reported as 0.06. With A13U A21G A56G the self-cleavage was 0.26. Variant A13U A21G A56G U72C has a self-cleavage of 0.13. Variant A13U A21G A64G has a self-cleavage of 0.26. For A13U A21G C62U C71A, the self-cleavage was 0.03. In the case of A13U A21G G30A A35U A47U A56U A77G, the self-cleavage is reported as 0.08. Work on A13U A21G G30A U78C yielded a self-cleavage of 0.04. In the case of A13U A21G G33A U67G, the self-cleavage is reported as 0.05. Work on A13U A21G U25A C38U U72A yielded a self-cleavage of 0.04. Work on A13U A21G U25A U41A yielded a self-cleavage of 0.12. Variant A13U A21G U25A U72A A77C has a self-cleavage of 0.03. For A13U A21G U25C A45G A77U, the self-cleavage was 0.84. In the case of A13U A21G U26C A35G A47G U54C U60A, the self-cleavage is reported as 0.17. Variant A13U A21G U26C A64U A75G has a self-cleavage of 0.13. In the case of A13U A21G U26C C32U U41A U54C U69C, the self-cleavage is reported as 0.4. A13U A21G U26C U41A showed a self-cleavage of 0.03. A13U A21G U31A C40G U49C U54C gave a self-cleavage of 0.08. With A13U A21G U31A U67C the self-cleavage was 0.06. A13U A21G U31C U58A A65U U74A U76G showed a self-cleavage of 0.04. In the case of A13U A21G U31G, the self-cleavage is reported as 0.2. A13U A21G U41A gave a self-cleavage of 0.2. Work on A13U A21G U41A A47G A56G U69A yielded a self-cleavage of 0.05. A13U A21G U41A A56U U58A U66C U78C gave a self-cleavage of 0.06. For A13U A21G U41A U43C U66C U69C A77G, the self-cleavage was 0.01. For A13U A21G U41C, the self-cleavage was 0.71. With A13U A21G U41C A64G C79U the self-cleavage was 0.18. Work on A13U A21G U48C U54A yielded a self-cleavage of 0.17. A13U A21G U49C U54A showed a self-cleavage of 0.23. With A13U A21G U49C U58C U66C the self-cleavage was 0.09. Work on A13U A21G U51A C62U yielded a self-cleavage of 0.14. A13U A21G U51A C68G U76C U80C gave a self-cleavage of 0.06. A13U A21G U51C U60C C71A showed a self-cleavage of 0.08. With A13U A21G U58C the self-cleavage was 0.1. For A13U A21G U60C U72C G73U, the self-cleavage was 0.19. For A13U A21G U60G U66C, the self-cleavage was 0.3. A13U A21G U66C showed a self-cleavage of 1.1. Variant A13U A21G U67A has a self-cleavage of 0.08. A13U A21G U74A gave a self-cleavage of 0.77. Variant A13U A21U A28C G53C has a self-cleavage of 0.07. In the case of A13U A21U A28G A56G U60A U76C, the self-cleavage is reported as 0.07. A13U A21U A28G G46U showed a self-cleavage of 0.1. Work on A13U A21U A35U C39A yielded a self-cleavage of 0.18. Work on A13U A21U A57G U76C yielded a self-cleavage of 0.38. In the case of A13U A21U C23U, the self-cleavage is reported as 0.17. Variant A13U A21U G52U A56G U69A U78C has a self-cleavage of 0.11. Variant A13U A21U G55A A65U C68U U78C has a self-cleavage of 0.08. With A13U A21U U26C the self-cleavage was 0.31. Variant A13U A21U U31C C32U U60A has a self-cleavage of 0.1. A13U A21U U31C G73A showed a self-cleavage of 0.33. Variant A13U A21U U41C U43C U69C U78C has a self-cleavage of 0.08. Work on A13U A21U U51C yielded a self-cleavage of 0.3. A13U A21U U78C showed a self-cleavage of 0.38. A13U A28C A57G showed a self-cleavage of 0.19. In the case of A13U A28C C32U C34A A45G G52U, the self-cleavage is reported as 0.05. In the case of A13U A28C U31C C44A U54C, the self-cleavage is reported as 0.16. Variant A13U A28C U31C U72A has a self-cleavage of 0.1. For A13U A28C U43A C62U A65G, the self-cleavage was 0.11. A13U A28C U60A U72A U76A gave a self-cleavage of 0.1. For A13U A28G A35G U67C C79U, the self-cleavage was 0.34. A13U A28G A65G U67A gave a self-cleavage of 0.14. With A13U A28G C38U A56G C62U U72C U78C the self-cleavage was 0.05. A13U A28G C44U U49C A77U showed a self-cleavage of 0.07. Variant A13U A28G C59A G73A has a self-cleavage of 0.07. For A13U A28G G33A, the self-cleavage was 0.16. A13U A28G G52A A64G U76A U78C showed a self-cleavage of 0.59. A13U A28G G52A C62A gave a self-cleavage of 0.1. Variant A13U A28G G53C U67C G70C G73A has a self-cleavage of 0.13. A13U A28G G55A A57G showed a self-cleavage of 0.43. A13U A28G U31C showed a self-cleavage of 0.55. A13U A28G U41A C62U A65G U80C showed a self-cleavage of 0.26. In the case of A13U A28G U43A C81A, the self-cleavage is reported as 0.89. With A13U A28G U49C U78C the self-cleavage was 0.12. A13U A28G U51A G52U U58A U72G C81G showed a self-cleavage of 0.45. A13U A28G U54C gave a self-cleavage of 0.63. Variant A13U A28G U54C U58A U78C has a self-cleavage of 0.12. With A13U A28G U60A the self-cleavage was 0.15. Work on A13U A28G U72G yielded a self-cleavage of 0.88. A13U A28U A35G gave a self-cleavage of 1.2. For A13U A28U A35G A56G U72G, the self-cleavage was 1.21. Variant A13U A28U A35G U41C U54G G55A U69A has a self-cleavage of 0.51. Variant A13U A28U A47G U49C has a self-cleavage of 0.27. A13U A28U C29U A77U showed a self-cleavage of 0.43. Work on A13U A28U C34G U41C yielded a self-cleavage of 0.1. With A13U A28U C62U A64G U67C the self-cleavage was 0.1. A13U A28U C71U showed a self-cleavage of 0.44. With A13U A28U G33U U48C A57G C62U the self-cleavage was 0.08. For A13U A28U U43C C71U, the self-cleavage was 0.17. A13U A28U U43C U54A U60A C68G U80A gave a self-cleavage of 0.06. With A13U A28U U48G the self-cleavage was 0.23. For A13U A28U U49A, the self-cleavage was 0.57. Variant A13U A28U U49C A56G U72G has a self-cleavage of 0.25. With A13U A28U U66C the self-cleavage was 0.49. Variant A13U A35C U48C has a self-cleavage of 0.38. In the case of A13U A35G A45C U72C U78C, the self-cleavage is reported as 0.7. A13U A35G A45G C62U U80A gave a self-cleavage of 0.57. For A13U A35G A64G U69C, the self-cleavage was 0.93. With A13U A35G C62U U67C the self-cleavage was 0.47. Variant A13U A35G G42A G55A has a self-cleavage of 0.32. A13U A35G U41A A47G A56G A77U showed a self-cleavage of 0.21. In the case of A13U A35G U41G A45U U72C, the self-cleavage is reported as 0.12. A13U A35G U43C A47U U49G U58A gave a self-cleavage of 0.42. With A13U A35G U51A U67C the self-cleavage was 0.38. A13U A35G U51C showed a self-cleavage of 1.23. Work on A13U A35G U51C U69C yielded a self-cleavage of 1.1. A13U A35G U58C showed a self-cleavage of 1.24. Variant A13U A35G U67C has a self-cleavage of 0.65. With A13U A35U A45U the self-cleavage was 0.19. Work on A13U A35U A56U U66C yielded a self-cleavage of 0.09. With A13U A35U U41C U67C U69A U72G the self-cleavage was 0.16. A13U A35U U49A gave a self-cleavage of 0.23. Work on A13U A35U U49C U67A yielded a self-cleavage of 0.11. A13U A35U U54G A75U gave a self-cleavage of 0.66. Work on A13U A35U U76A yielded a self-cleavage of 1.12. A13U A45C A65G showed a self-cleavage of 0.2. With A13U A45G A47G A64G the self-cleavage was 0.25. For A13U A45G A57G A64G, the self-cleavage was 0.62. With A13U A45G A57G U60C the self-cleavage was 1.06. Work on A13U A45G A65G yielded a self-cleavage of 0.39. Variant A13U A45G A65G U72A has a self-cleavage of 0.26. A13U A45G C68A showed a self-cleavage of 0.43. Variant A13U A45G U48A U60A has a self-cleavage of 0.06. A13U A45G U48A U78C showed a self-cleavage of 0.18. For A13U A45G U51C U60C, the self-cleavage was 1.25. In the case of A13U A45G U54G, the self-cleavage is reported as 0.79.
